Assay results published in PubChem BioAssay AID1347073 (National Center for Advancing Translational Sciences (NCATS), 2019).
Hit rate of the full screen: of about 45,000 compounds, about 200 (0.44%) were called active. Not shown: some 7% with an inconclusive outcome. The call rests on the fitted dose curve; in most records, active means well fitted activation curve with a large enough effect; inconclusive means small, poorly fitted or top-dose-only effect; inactive means no such curve, though single readings can be large or run the other way. The list shows a part of the results.

experiment: qHTS of TDP-43 Inhibitors: NCGC Sytravon Library Screen; conditions: yeast TDP-43 toxicity rescue, BacTiter-Glo growth, 24 h; series mostly up to 46.1 µM; growth rescue (activation): at the top concentration; further: 0% is about no effect; nearly all actives have a fitted effect of over 55% in size
In short: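 TDP-43-expressing yeast, pregrown in raffinose, seeded at OD600 0.02 in galactose medium with compound for 24 hr at 30 deg C. Growth read by BacTiter-Glo luminescence, so rescue of toxicity appears as activation.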

Row | SMILES | growth rescue (activation)
1 | O=S(=O)(/N=C(/NC(=S)Nc1ccccc1)c1ccccc1)c1ccc(Cl)cc1 | inactive: 28.7%
2 | N#Cc1ccc(CSc2nnc3[nH]c(=O)cc(N)n23)cc1 | inactive: -14.9%
3 | O=c1c2ccccc2[nH]c(=S)n1CCC1=CCCCC1 | inactive: 6.12%
4 | CC1(C)Cc2ccccc2-c2[nH]c(=S)[nH]c(=O)c21 | inactive: 24.7%
5 | CC(/C=C1\SC(=O)N(CCCC(=O)O)C1=O)=C\c1ccccc1 | inactive: 7.44%
6 | S=C(NCc1ccncc1)Nc1ccc(Cl)c(Cl)c1 | inactive: 9.28%
7 | Cn1c(-c2cccc([N+](=O)[O-])c2)cnc1NCc1ccc(C#N)cc1 | inactive: 3.65%
8 | NC(=O)C1CCN(C(=O)CSc2nc(O)cc(=O)[nH]2)CC1 | inactive: 1.1%
9 | CCNC(=O)c1ccc(C23CC4CC(CC(C4)C2)C3)o1 | inactive: 7.33%
10 | COc1ccccc1CNc1nc(NC(C)C)nc2cc(-c3ccccc3)sc12 | inactive: 11.8%
11 | COc1ccc(Cl)cc1NC(=O)CN1CCC(NC(=O)C2CC2)CC1 | inactive: -9.5%
12 | O=C(O)c1ccc(C2SCC(=O)N2Cc2ccccc2)cc1 (stereo not drawn) | inactive: 16.6%
13 | COc1ccc2c(-c3ccccc3)cc(SCC(=O)NC3CCS(=O)(=O)C3)nc2c1 (stereo not drawn) | inactive: -1.68%
14 | Cc1sc2nc(COC(=O)c3ccc(N4CCCC(C)C4)c([N+](=O)[O-])c3)[nH]c(=O)c2c1C (stereo not drawn) | inactive: 10.4%
15 | CC1(C(=O)NS(=O)(=O)c2ccc(Br)cc2)CCN1C(=O)C/C=C/c1ccccc1 (stereo not drawn) | inactive: -8.49%
16 | Cn1cc(C(=O)Nc2ccc(C#N)cc2)c2ccccc2c1=O | inactive: 1.48%
17 | N/C(=N\OCC(=O)Nc1ccccc1)c1nonc1N | inactive: 1.59%
18 | COc1cc(/C=N\Nc2nc(-c3cccs3)c(NC(C)=O)s2)ccc1O | inactive: -0.488%
19 | O=C(NCC(=O)N(c1cccnc1)C(C(=O)NC1CCCCC1)c1ccccc1F)c1ccco1 (stereo not drawn) | inactive: -13.9%
20 | CC(=O)NC(Cc1cccc(F)c1)C(=O)NC1CCN(c2nnnn2-c2ccccc2)CC1 (stereo not drawn) | inactive: 1.84%
21 | O=C(COc1ccc(S(=O)(=O)N2CCCC2)cc1)Nc1ccc(F)cc1 | inactive: 5.62%
22 | Cc1cc(NC(=O)CN2C(=O)/C(=C/c3cccc(Br)c3)SC2=S)no1 | inactive: 5.56%
23 | Cc1ccc(C(=O)NCCSCc2ccc(Cl)cc2Cl)cc1[N+](=O)[O-] | inactive: 27.1%
24 | COc1ccc(Cl)cc1-c1nc(SCC(=O)NC(C)C(C)C)n[nH]1 (stereo not drawn) | inactive: -2.25%
25 | CC(C)(C)NC(=O)Cn1c(SCC(=O)NC2CCCC2)nc2ccccc21 | inactive: 10.2%
26 | CN(CC(=O)Nc1ccccc1C(F)(F)F)C(=O)CSc1nnc(N)s1 | inactive: -5.37%
27 | O=C(Nc1nc2nccc(-c3ccccc3)n2n1)c1ccccc1 | inactive: -3.9%

Row | SMILES | growth rescue (activation)
28 | Cc1cc2nc(NC(=O)C3(C)CCCN(C(C)C)C3)[nH]c2cc1C (stereo not drawn) | inactive: -10.8%
29 | Cc1ccc(NC(=O)CN2C(=O)c3ccccc3S2(=O)=O)c(C)c1 | inactive: 6.56%
30 | COc1cc(Cl)c(C)cc1NC(=O)c1cccc(OC)c1OC | inactive: 16%
31 | Cc1nnc(SCC(=O)N2CCOCC2)n1C | inactive: 7.96%
32 | Fc1ccc2c(c1)C(c1ccncc1)=NNC(c1ccc(Br)cc1)=N2 | inactive: 4.22%
33 | Cc1ccc(NC(=O)CCn2c(=O)[nH]c3ccsc3c2=O)cc1 | inactive: 8.39%
34 | CCN(CC)S(=O)(=O)c1ccc(NS(=O)(=O)c2cccs2)cc1 | inactive: 3.83%
35 | Cc1cc(C(=O)COC(=O)Cc2n[nH]c(=O)c3ccccc23)c(C)n1-c1ccc2c(c1)OCCO2 | inactive: 11.4%
36 | COc1ccc(NC(=S)NN2CCN(C)CC2)cc1 | inactive: 3.37%
37 | CCCN1C(=O)/C(=C/c2ccccc2OCc2ccc(C(=O)O)cc2)NC1=S | inactive: 20.5%
38 | Cc1cccc(C(=O)NCCNC(=O)c2cccnc2)c1 | inactive: -6.49%
39 | Cc1ccccc1Cn1nc(C)c(NC(=O)c2cc(CC(C)C)on2)c1C | inactive: 19.8%
40 | COCCn1c(-c2ccc(NC(C)=O)cc2)nc2c1c(=O)[nH]c(=O)n2CC(C)C | inactive: 12.5%
41 | COCCn1c(=O)[nH]c2cc(C(=O)Nc3cc(C)cc(C)c3)ccc2c1=O | inactive: 2.49%
42 | CC(C)N(Cc1cnn(C)c1)C(=O)C1CCC(=O)N(CCc2cccc(F)c2)C1 (stereo not drawn) | inactive: 13.1%
43 | COC(=O)CCC(=O)N1CCOCCOCCOCC1 | inactive: 6.69%
44 | COCCCn1c(C)cc(C(=O)COC(=O)CCc2nc3ccccc3c(=O)[nH]2)c1C | inactive: 35%
45 | CCN(CC)S(=O)(=O)c1ccc(Cl)c(NC(=O)c2ccc(C#N)cc2)c1 | inactive: -5.03%
46 | COc1cc(NC(=O)c2ccccc2F)ccc1NC(=O)c1cc2ccccc2o1 | inactive: 12.3%
47 | CCCNC(=S)N1CCN(Cc2ccc3c(c2)OCO3)CC1 | inactive: -6.14%
48 | Cc1cc(C)nc(CCNC(=O)c2cc(COc3ccc(F)cc3Cl)on2)n1 | inactive: 35.4%
49 | O=c1[nH]c2c(c(=O)[nH]1)CCC2 | inactive: 2.48%
50 | CC(Sc1nncn1C)C(=O)Nc1cc(C(F)(F)F)ccc1N1CCOCC1 (stereo not drawn) | inactive: 1.36%
51 | COc1ccccc1CC(=O)NNC(=O)c1ccco1 | inactive: -7.58%
52 | COc1ccccc1CNC(=O)CN(C)S(=O)(=O)c1ccc(F)cc1 | inactive: -6.86%
53 | Cc1ccc(NC(=O)CSc2nc(N)cc(=O)[nH]2)cc1S(=O)(=O)N1CCCCC1 | inactive: -4.89%
